Source: PubChem BioAssay AID1745853 (National Center for Advancing Translational Sciences (NCATS), 2022)
Values joined by “and” are separate entries in the source; they are usually repeats but may differ in a detail not shown here. Equal entries are not always repeated. The list shows a part of the results. The main result of the screen is listed elsewhere. These columns were measured beside it and carry no call.

How the values were obtained:
Assay in all cases: Primary Screen for Target Class Profiling of Small Molecule Inhibitors of Methyltransferases
[1] = target: Glycine N-methyltransferase (Homo sapiens) (UniProt Q14749); conditions: purified enzyme, MTase-Glo SAH luminescence; measured here: GNMT inhibition; at 40 µM; stronger effect = lower value
Summary of the method: (§1)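 Each enzyme was reacted with SAM and its substrate, with compounds tested once at 40 uM; SAH formed was read by MTase-Glo luminescence.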

[2] = target: Guanidinoacetate N-methyltransferase (Homo sapiens) (UniProt Q14353); conditions: purified enzyme, MTase-Glo SAH luminescence; measured here: GAMT inhibition; at 40 µM; stronger effect = lower value
Summary of the method: as §1

[3] = target: Histamine N-methyltransferase (Homo sapiens) (UniProt P50135); conditions: purified enzyme, MTase-Glo SAH luminescence; measured here: HNMT inhibition; at 40 µM; stronger effect = lower value
Summary of the method: as §1

[4] = target: Nicotinamide N-methyltransferase (Homo sapiens) (UniProt P40261); conditions: purified enzyme, MTase-Glo SAH luminescence; measured here: NNMT inhibition; at 40 µM; stronger effect = lower value
Summary of the method: as §1

[5] = target: Phenylethanolamine N-methyltransferase (Homo sapiens) (UniProt P11086); conditions: purified enzyme, MTase-Glo SAH luminescence; measured here: PNMT inhibition; at 40 µM; stronger effect = lower value
Summary of the method: as §1
% is set by controls: 0 for no effect and ±100 for the full control effect.

Structure (SMILES) | activity change, negative = inhibition [1] | activity change, negative = inhibition [2] | activity change, negative = inhibition [3] | activity change, negative = inhibition [4] | activity change, negative = inhibition [5]
O=C(NC1CC(=O)N(Cc2cccc(F)c2)C1)c1ccccc1-n1cccn1 (configuration not stated) | -0.189% | -4% | -0.389% | -0.817% | 4.72%
C=C1CCC[C@]2(C)CC/C(=C(/CO)C(=O)OC)C[C@@H]12 | -0.489% | -4.72% | 6.22% | -18.4% | -10.1%
Cc1cc2c(cc3n2CC(C(=O)NC2CCCCCC2)(c2ccccc2)N(Cc2ccccc2)C3=O)o1 (configuration not stated) | -2.37% | -0.769% | 0.556% | -5.99% | -7.98%
CC(C)CCNC(=O)c1cc2n(n1)CC(C)(C(=O)NCc1ccccc1)N(C)C2=O (configuration not stated) | 1.15% | 2.42% | -3.41% | -2.02% | 0.187%
CC(=O)O[C@@H](CO[C@@H]1O[C@H](CO)[C@H](O)[C@H](O)[C@H]1O)[C@]1(C)C=C2CC[C@@H]3C(C)(C)[C@@H](O)CC[C@@]3(C)[C@@H]2CC1 | -1.16% | -8.97% | 3.55% | -20.8% | -8.08%
CCCn1c(=O)c2ccc(C(=O)NC(C)CC)cc2n2c(=O)n(CC(=O)Nc3cccc(Cl)c3)nc12 (configuration not stated) | -1.45% | 1.86% | 0.537% | -2.22% | -1.16%
Oc1ccc(Nc2nc(-c3ccc(Cl)cc3)cs2)cc1 | -3.3% | 9.41% | 9.98% | -3.63% | 3.53%
CC(C)N(C[C@H]1O[C@@H](n2cnc3c(N)ncnc32)[C@H](O)[C@@H]1O)C1CC(CCc2nc3ccc(C(C)(C)C)cc3[nH]2)C1 (some centres not stated) | -46.9% | -0.317% and -0.553% | -80.1% | -95.3% and -94.8% | -91.4% and -90.6%
Cc1cc(C)n(CCC(=O)N2CCC(Cc3nncn3-c3ccccc3)CC2)n1 | 0.418% | 0.94% | 3.05% | 1.94% | -11.6%
O=C(NCc1cccc(F)c1)N1CCC(n2cnnc2C2CC2)C1 (configuration not stated) | -1.51% | -4.9% | 0.628% | -9.21% | -6.88%
CNc1cc(NS(=O)(=O)c2ccc(N)cc2)nc(NC)n1 | -10.4% | 9.39% | 7.8% | -9.93% | -6.25%
CCOc1ccc(N(C(=O)c2ccncc2)S(=O)(=O)c2ccc3c(c2)n(C)c(=O)n3C)cc1 | 3.05% | 4.63% | 9.86% | -1.45% | 3.13%
Cc1cc2c(cc3n2CC(C(=O)NC2CCCCC2)(c2ccccc2)N(Cc2ccccc2)C3=O)o1 (configuration not stated) | -4.31% | -1.58% | -6.02% | -7.79% | -7.87%
O=[S+]([O-])(c1cccnc1)c1nnn2c1nc(NCc1ccncc1)c1ccccc12 | -7.1% | -0.469% | 0.123% | -1.59% | 5.16%
Cc1ccc(Cl)cc1N1C(=O)c2cc3occc3n2CC1(C)C(=O)NC1CCCCC1 (configuration not stated) | -11% | 0% | -24.5% | -15.3% | -10.5%
CCC(Cc1ccccc1)NC(=O)Cn1c(=O)oc2cc(S(=O)(=O)NCc3ccccc3)ccc21 (configuration not stated) | 13.6% | 1.44% | 12.5% | 0.973% | 9.55%
CCc1ccc(-c2cc3n(n2)CC(C)(C(=O)NC2CCCCC2)N(CCN(CC)CC)C3=O)cc1 (configuration not stated) | 4.59% | 1.46% | 3.98% | 4.93% | -0.365%
Cc1ccc(C(=O)NCCCCCC(=O)Nc2ccccc2N)cc1 | -16.2% | – | -5.32% | -7.51% | 23.3%
CCCn1c(=O)c2cc(F)ccc2n2c(SCc3cccc(C)c3)nnc12 | -16% | 2.82% | 5.93% | -15.1% | 1.73%
CCN1C(=O)c2cc(C(=O)N3CCN(c4cc(Cl)ccc4C)CC3)nn2CC1(C)C(=O)NC1CCCC1 (configuration not stated) | 6.43% | 4.5% | 5.83% | 1.72% | 6.18%

Structure (SMILES) | activity change, negative = inhibition [1] | activity change, negative = inhibition [2] | activity change, negative = inhibition [3] | activity change, negative = inhibition [4] | activity change, negative = inhibition [5]
Cc1ccc(OCc2nc(C3CCCCN3C(=O)c3ccncc3)no2)cc1 (configuration not stated) | -4.88% | -8.21% | -2.71% | -16.7% | 6.87%
Cc1nc2sc(C(=O)NCc3ccncc3)c(N)c2c(C)c1Cl | -19.6% | 4.38% | -13.9% | -16.6% | -8.4%
N#Cc1ccc2[nH]c(O)c(-c3ccc(CN4CCOCC4)cn3)c2c1 | -6.1% and -8.99% | -5.05% and 2.95% | -3.66% and 9.13% | -16.4% and -6.73% | -5.36% and 6.7%
CC(C)c1ccc(S(=O)(=O)NCCn2c(CCc3ccccc3)nc3ccccc32)cc1 | -5.67% | 0% | -0.553% | -3.68% | 2.67%
O=C(CC1C(=O)Nc2ccccc21)OC[C@H]1O[C@@H](OCCc2ccc(O)cc2)[C@H](O)[C@@H](O)[C@@H]1O (some centres not stated) | -3.13% | 1.02% | 10.2% | -11.6% | -5.32%
CC(=O)NCc1nnc2n1C(C(=O)Nc1cccc(Cl)c1)CC2 (configuration not stated) | -1.19% | 3.06% | 1.27% | -0.233% | 2.23%
CC1CCC(NC(=O)c2cc3n(n2)CC(C)(C(=O)NC2CCCCC2)N(C)C3=O)CC1 (configuration not stated) | 8.87% | 4.06% | 7.78% | 10.1% | 3%
CC(C)CNC(=O)c1ccc2c(=O)n(C(C)C)c3nn(CC(=O)NCc4ccccc4)c(=O)n3c2c1 | 1.01% | 0.82% | 3.72% | -5.72% | -2.06%
CC(C)[S+](=O)([O-])N1CCC2(CC1)CC(c1cccc(C(F)(F)F)c1)=NO2 | -1.58% | -0.309% | 2.28% | 0.882% | -5.24%
C(=C\c1ccccc1)/CN1CCN(c2nccc(-c3cccnc3)n2)CC1 | -5.01% | -2.63% | -15.8% | -2.18% | -28%
Cc1ccc(CNC(=O)CCc2nnc3ccc(NCCCN4CCCC4=O)nn23)cc1 | 1.91% | 2.67% | 12.8% | 7.25% | 9.26%
Nc1c(S(=O)(=O)O)cc(Nc2ccc(Nc3nc(Cl)nc(Nc4ccc(S(=O)(=O)O)cc4)n3)c(S(=O)(=O)O)c2)c2c1C(=O)c1ccccc1C2=O | -95.9% | -91.7% | -37.6% | -53% | -44.8%
COc1cccc(CNC(=O)CCc2nnc3n(CCCOC(C)C)c(=O)c4ccccc4n23)c1 | -8.64% | -2.83% | -6.76% | -7.05% | -8.25%
CC1(C)CC[C@]2(C(=O)O)CC[C@]3(C)C(=CCC4[C@@]5(C)CC[C@H](O[C@@H]6O[C@H](C(=O)O)[C@@H](O)[C@H](O[C@@H]7O[C@H](CO)[C@H](O)[C@H](O)[C@H]7O)[C@H]6O[C@@H]6O[C@H](CO)[C@@H](O)[C@H](O)[C@H]6O)C(C)(C)C5CC[C@]43C)[C@@H]2C1 (some centres not stated) | -4.96% | -7.93% | 1.49% | -19.4% | -12.5%
CCC(C)NC(=O)c1ccc2c(=O)n(CCC(C)C)c3nn(Cc4ccccc4)c(=O)n3c2c1 (configuration not stated) | -5.38% | 0% | 2.54% | -3.02% | 0.908%
CCC1(C(=O)NC2CCCCC2)CCCCC(=O)N1 (configuration not stated) | -1.14% | -2.19% | -0.045% | -0.807% | -4.33%
O=C(c1cccc(OC2CN(C3CCCC3)C2)c1)N1CCCC1 | -0.969% | 1.58% | -13.5% | 1.43% | -3.6%
Cc1ccc(Nc2ccn3c(=O)n(CC(=O)Nc4ccc(F)cc4F)nc3n2)cc1 | 7.45% | 0.6% | 4.61% | -0.676% | 2.79%
COc1ccc([C@H]2Cc3cccc(O)c3C(=O)O2)cc1 | -4.45% | 5.56% | 4.6% | -8.87% | -0.974%
C/C=C/CN1C[C@@H](NC(=O)c2cccc(N(C)C)c2)C[C@H]1C(=O)NCC | -3.53% | -6.46% | -1.4% | -4.61% | -2.19%

Structure (SMILES) | activity change, negative = inhibition [1] | activity change, negative = inhibition [2] | activity change, negative = inhibition [3] | activity change, negative = inhibition [4] | activity change, negative = inhibition [5]
O=C([C@@H]1C[C@H](Oc2ccccc2)CN1C(=O)C1CC1)N1CCCC1 | -3.83% | -3.87% | -0.748% | -6.04% | -12%
CN1CCCC2(CCN(S(=O)(=O)c3ccc4[nH]c(=O)[nH]c4c3)C2)C1=O (configuration not stated) | -5.79% | -8.71% | -1.43% | -11.9% | -27.7%
CCCn1c(=O)c2ccccc2n2c(=O)n(CC(=O)c3ccc(OCC)cc3)nc12 | 3.06% | 0% | 8.06% | 5.69% | 5.82%
COC1=C(C(=O)OCc2ccccc2)N(c2c(C)cccc2C)[S+](=O)([O-])c2ccccc21 | -2.45% | -3.13% | -1.82% | -5.43% | -8.14%
CCCCCCCCCCCCC/C=C/[C@@H](O)[C@H](CO)N(C)C | – | 14.9% | – | -2.18% | 6.9%
C=C(C)C(=O)OC1C(OC(C)=O)/C(C=O)=C\CC/C(CO)=C/C2OC(=O)C(=C)C21 (configuration not stated) | 0% | -1.1% | -1.43% | -9.8% | 1.47%
CCOC(=O)c1cc2n(n1)CC(C)(C(=O)NCc1ccc(C)cc1)N(CCc1ccc(OCC)cc1)C2=O (configuration not stated) | 2.6% | 0% | 5.04% | -2.01% | 0.333%
CC(=O)N[C@H](CC(C)C)c1nc(-c2ccc(C)nn2)no1 | -5.38% | -6% | -3.91% | -14.1% | -7.26%
CN(C)CC1CCOC1(c1ccccc1)c1ccccc1 (configuration not stated) | 5.57% | 8.86% | 8.51% | -3.73% | 6.01%
CC(C)CCN1CC2(CCCN(S(=O)(=O)N3CCOCC3)C2)CCC1=O (configuration not stated) | -0.146% | 5.9% | 2.04% | -1.31% | 4.05%
CCCNC(=O)N1CCC(Cc2ccc(CCNC(C)=O)cc2)CC1 | -4.24% | -10.5% | -3.09% | -5.05% | -4.95%
Cc1ccc(C(=O)O)c2c1N[C@@H](c1ccc(Cl)cc1)[C@H]1CC=C[C@@H]21 | -31.4% | 2.75% | 4.55% | -1.56% | -0.876%
CC1(C(=O)NCc2ccc(F)cc2)Cn2cnc(C(=O)NCCc3ccccc3Cl)c2C(=O)N1C1CC1 (configuration not stated) | -0.323% | 1.12% | 3.52% | -1.28% | 2.67%
O=C1NC(=NC2CCCC2)C2(CCN([S+](=O)([O-])c3cccc(C(F)(F)F)c3)C2)N1c1cccnc1 (configuration not stated) | -6.81% | 0.206% | -1.13% | -0.591% | 1.32%
CN1CCCC2(CCN(c3nc4c(cc3C(N)=O)CCC4)C2)C1=O (configuration not stated) | -0.926% | -5.74% | -34.7% | -10.3% | 0.029%
CN(Cc1ccccc1)Cc1cc(CC2(NC3CCCCC3)COC2)no1 | -0.893% | -1.98% | 0.332% | -0.42% | -0.101%
Cc1ccc(CNC(=O)C2(C)Cn3nc(C(=O)NCc4ccc(OC(C)C)cc4)cc3C(=O)N2C)cc1 (configuration not stated) | 0.323% | 1.02% | 2.07% | 1.11% | 1.28%
O=C1Cc2c(-c3ccccc3OCc3ccccc3)n[nH]c2CN1CC1CCOCC1 | -6.81% | -2.46% | -6.19% | -17.1% | -2.18%
